Among all 52,000 compounds or so, about 1,700 (3.3%) were called active. No stated cut-off is given here; in the data, active means survival mostly below about 52% (no sharp cut-off); inactive means mostly above about 56%. This is one part of the list.
Tested on: Wild type
Experiment: growth inhibition of S. aureus wild type versus tarO mutant, primary screen, teichoic acid synthesis inhibitors, RN4220, OD600 (AID 463173)
Settings: S. aureus RN4220 wild type/DeltatarO growth, OD600, 18 h, stronger effect = lower value, screened at 18.75 µg/mL (by protocol)

| Structure (SMILES) | survival |
| --- | --- |
| CN(Cc1ccccc1)C(=O)c1ccc2c(c1)N(Cc1ccc(Cl)cc1)C(=O)c1ccccc1S2=O (centres undefined) | inactive: 97% |
| Cc1oc(-c2ccc(Cl)cc2)nc1CN1CCCC(C(=O)NCc2ccc(Cl)cc2)C1 (centres undefined) | inactive: 85% |
| CC(C)c1ccc(NC(=O)CSC2=Nc3ccccc3C3=NC(CC(=O)NCc4ccco4)C(=O)N23)cc1 (centres undefined) | inactive: 72% |
| O=c1c2ccccc2n2c(-c3cccc(F)c3)nnc2n1Cc1ccccc1 | inactive: 90% |
| COc1cccc(NS(=O)(=O)c2ccc3[nH]cc(C(=O)N(C)Cc4ccco4)c(=O)c3c2)c1 | inactive: 84% |
| CCc1ccccc1N1CC(c2nc3ccccc3n2CCC2CCCCC2)CC1=O (centres undefined) | active: 25% |
| CCOC(=O)N1CCN(C(=O)c2cnn(-c3cccc(C)c3)c2-n2cccc2)CC1 | inactive: 87% |
| COc1ccc(OC)c(NC(=O)c2cc3c(=O)n4cccc(C)c4nc3n2C)c1 | inactive: 83% |
| Cc1cc(SCCOc2ccccc2)nc(N)n1 | inactive: 91% |
| CN(C)c1ccc(-c2nc3ccccn3c2Nc2ccc3c(c2)OCCO3)cc1 | inactive: 88% |
| Cc1cccc(N2CCN(C(=O)c3c4c(nc5ccccc35)C(=O)N(C3CCCCC3)C4)CC2)c1C | inactive: 128% |
| Cc1ccc(N(C)C(=O)c2noc3c2CCCCC3)cc1C | inactive: 73% |
| Cc1ccc(CC(=O)NCc2nc(-c3cccc(C)c3)no2)cc1 | inactive: 93% |
| Cc1cccc(C)c1OCc1cc(=O)n2ccsc2n1 | inactive: 81% |
| CC(=O)Nc1ccc(S(=O)(=O)NC(=O)CC(C)C)cc1 | inactive: 108% |
| COc1cc(OC)c(NC(=O)C(C)n2nc(-c3ccc(C)c(C)c3)ccc2=O)cc1Cl (centres undefined) | inactive: 61% |
| COc1cc(OC)cc(C(=O)Nc2ccc(O)c(-c3nc4cc(C)c(C)cc4o3)c2)c1 | inactive: 98% |
| COc1cccc(NC(=O)CSc2nnc(NC(=O)NC3CCCCC3)s2)c1 | inactive: 63% |
| COc1cccc(C(=O)c2cn(CC(=O)Nc3cccc(Cl)c3C)c3nc(C)ccc3c2=O)c1 | inactive: 74% |
| O=C(Cn1c(=O)c2sccc2n(CC(=O)Nc2ccc(Cl)cc2Cl)c1=O)NCCc1ccccc1 | inactive: 106% |
| Cc1ccc(NC(=O)N2CCc3c([nH]c4ccccc34)C2c2ccccc2F)c(Cl)c1 (centres undefined) | inactive: 82% |
| CCCN1Cc2cccc(C(=O)Nc3ccc(OC)cc3OC)c2C1=O | inactive: 87% |
| COCCN1C(=O)c2oc3ccc(C)cc3c(=O)c2C1c1ccc(C(=O)OC)cc1 (centres undefined) | inactive: 73% |

| Structure (SMILES) | survival |
| --- | --- |
| CSc1ncc(C(=O)NCc2cccc(Br)c2)c(-c2ccccc2)n1 | inactive: 77% |
| O=C(CSc1nc(-c2ccccc2)cc(=O)[nH]1)Nc1ccccc1 | inactive: 102% |
| O=C(NCc1ccccc1F)C(=O)NCC(c1ccco1)S(=O)(=O)c1ccccc1 (centres undefined) | active: -6% |
| Cc1ccc(C)c(NS(=O)(=O)c2ccc3c(c2)CCCN3C(=O)C2CCC2)c1 | inactive: 94% |
| Cc1ccc(C(C)C)c(OCC(=O)Nc2ccc(-c3nc4ncccc4o3)cc2C)c1 | inactive: 69% |
| COC(=O)c1c(NC(=O)CCCOc2ccccc2C)sc2c1CCC2 | active: 4% |
| O=C(NCCCO)c1ccc(CSc2nc3ccccc3c(=O)[nH]2)cc1 | inactive: 105% |
| COc1ccc(CNS(=O)(=O)c2ccc3c(c2)C(C)(C)C(=O)N3C)cc1OC | inactive: 64% |
| COc1ccc(C(C(=O)NCc2ccccc2)N(C(=O)Cn2nnc3ccccc32)c2ccc(OC)cc2)cc1 (centres undefined) | inactive: 95% |
| COC(=O)c1ccc2c(c1)n(CCO)c(C)[n+]2CCO | inactive: 97% |
| Cc1ccc(CCNC(=O)c2ccc(CNS(=O)(=O)c3ccc(F)cc3)cc2)cc1 | inactive: 72% |
| COC(=O)c1cc2sc(Cl)cc2n1Cc1nc(-c2ccccc2F)oc1C | inactive: 122% |
| Cc1cccc(N2CCN(C(=O)c3cccc(-n4c(C)nc5cccnc54)c3)CC2C)c1 (centres undefined) | inactive: 74% |
| Cc1c(C(=O)Nc2ccccc2Cl)oc2ccc(S(=O)(=O)N3CCCCCC3)cc12 | inactive: 83% |
| COC(=O)COc1ccc(S(=O)(=O)N2CCCCC2)cc1C | inactive: 117% |
| CCOC(=O)C1=C(CS(=O)(=O)c2ccc(F)c(C)c2)NC(=O)NC1c1ccc(F)c(F)c1 (centres undefined) | inactive: 92% |
| CC(=O)N1CCc2c(sc(NC(=O)CSc3ccc(C)cc3)c2-c2nc3ccccc3s2)C1 | inactive: 76% |
| Cc1cc(C)c2c(n1)SCC(=O)N2CC(=O)Nc1c(C)cccc1C | inactive: 79% |
| Cc1cc(C)cc(NC(=O)Nc2c[nH]c(=O)[nH]c2=O)c1 | inactive: 79% |
| CCn1c(CN2CCC(C)CC2)nc2cc(NC(=O)c3cccc([N+](=O)[O-])c3)ccc21 | inactive: 85% |
| COc1ccc(OC)c(CCNc2ncnc3onc(C)c23)c1 | inactive: 153% |
| CC(=O)Nc1nnc(C(C)C)s1 | inactive: 103% |
| O=C(NC1(C(F)(F)F)N=C(c2ccccc2)N(C2CCCCC2)C1=O)c1ccccc1F (centres undefined) | inactive: 70% |

| Structure (SMILES) | survival |
| --- | --- |
| COc1ccc(NS(=O)(=O)c2cc3c4c(c2)CC(=O)N4CCC3)cc1Cl | inactive: 82% |
| CCS(=O)(=O)N1CCN(c2nc(C)nc3sc4c(c23)CCC(C)C4)CC1 (centres undefined) | inactive: 96% |
| COc1ccc(-c2noc(CSc3nnc(-c4ccncc4)n3-c3cccc(C)c3)n2)cc1OC | inactive: 87% |
| COc1ccccc1NC(=O)Cn1c(SCC(=O)NCc2ccccc2)nc2ccccc21 | inactive: 67% |
| Cc1cc(C)cc(NC(=O)NCC2CCN(Cc3cc(C)ccc3C)CC2)c1 | inactive: 83% |
| CC(=O)Nc1ccc(-c2nnc3n(CC(C)C)c(=O)c4ccccc4n23)cc1 | inactive: 88% |
| Cc1ccc(-c2cc(-c3coc4ccccc4c3=O)c3c(n2)-c2cc(Cl)ccc2OC3)cc1 | inactive: 80% |
| COc1ccc(NC(=O)c2oc3ccc4c(c3c2C)C(=O)CC(C)(C)O4)cc1OC | inactive: 86% |
| CC1CCN(C(C(=O)O)c2ccccc2)CC1 (centres undefined) | inactive: 97% |
| CCc1ccc(OCC2c3cc(OC)c(OC)cc3CCN2C(=O)Cc2ccc(OC)c(OC)c2)cc1 (centres undefined) | inactive: 81% |
| COc1cc2c(cc1NC(=O)C(C)Oc1ccc(Cl)cc1Cl)oc1ccccc12 (centres undefined) | inactive: 49% |
| COc1ccc(CCC(=O)NCCc2csc(-c3cccc(F)c3)n2)cc1 | inactive: 68% |
| COc1ccc(NC(=O)CCCN2C(=O)C(c3ccccc3)Oc3cccnc32)cc1OC (centres undefined) | inactive: 90% |
| COc1cc(-c2nnc(SCC(=O)N(C)C3CCCCC3)o2)cc(OC)c1OC | inactive: 85% |
| Cc1ccc(CCNC(=O)CCCn2nc(C)c3c(C)n(-c4ccc(C)cc4)nc3c2=O)cc1 | inactive: 110% |
| Cc1ccc(OCC(=O)OCc2cc(=O)n3nc(C4CCCCC4)sc3n2)cc1 | inactive: 129% |
| CCN(c1ncnc2c1c(-c1ccccc1)cn2-c1ccccc1)C1CCCCC1 | inactive: 72% |
| Cc1cc(N2CCN(C)CC2)nc2ccc(NC(=O)Nc3ccccc3Cl)cc12 | inactive: 72% |
| CCNc1c(NC(=O)c2ccccc2OCC)c(=O)oc2ccccc12 | inactive: 90% |
| CSCCC(NC(=O)C1CCCCC1)C(=O)Nc1ccc(F)c(Cl)c1 (centres undefined) | inactive: 69% |
| COc1ccc(N(C(=O)c2ccccc2C)S(=O)(=O)c2ccc3c(c2)n(C)c(=O)n3C)cc1 | inactive: 67% |
| Cc1nc(N2CC(C)OC(C)C2)c2nnn(Cc3c(F)cccc3Cl)c2n1 (centres undefined) | inactive: 101% |
| CCOc1ccccc1NS(=O)(=O)c1c(C(=O)OC)sc2cccc(F)c12 | active: -3% |

| Structure (SMILES) | survival |
| --- | --- |
| COc1ccc(OC)c(CCNC(=O)c2sc3nc4n(c(=O)c3c2C)CCCC4)c1 | inactive: 76% |
| COc1ccc(N2CCN(S(C)(=O)=O)CC2)cc1 | inactive: 100% |
| COc1ccc(C(=O)CC(=O)c2ccccc2O)cc1 | inactive: 107% |
| COc1cccc(-c2nc(SC(C(C)=O)C(=O)N(C)C)c3c(=O)n(C)c(=O)n(C)c3n2)c1 (centres undefined) | inactive: 66% |
| CCOC(=O)C1=C(CNCc2ccccc2)NC(=O)NC1c1ccc(C)cc1 (centres undefined) | inactive: 90% |
| Cc1ccc(N2C(=O)[C@@H]3CSC(c4ccc(C(F)(F)F)cc4)N3C2=O)cc1 (some centres undefined) | inactive: 137% |
| Cc1ccc(S(=O)(=O)N2CCCc3cc(NC(=O)c4ccc(C(F)(F)F)cc4)ccc32)cc1 | inactive: 110% |
| COc1ccc(-n2c(=O)c3c(C)c(C)sc3n(Cc3ccc(F)cc3)c2=O)c(OC)c1 | inactive: 81% |
| O=C(Nc1ccc(F)cc1)c1cccc(N2CCCS2(=O)=O)c1 | inactive: 84% |
| O=C(COC(=O)c1ccco1)Nc1nc2ccccc2s1 | inactive: 108% |
| Cc1cc(=O)n(C(C)C(=O)NCc2ccccc2Cl)c2c1c(C)nn2-c1ccccc1 (centres undefined) | inactive: 125% |
| CCOc1ccccc1NC(=O)C1CCN(S(=O)(=O)Cc2ccccc2)CC1 | inactive: 80% |
| O=C(NC1CCCCC1)N(Cc1ccccc1)Cc1cc2cc3c(cc2[nH]c1=O)OCCO3 | inactive: 128% |
| COc1cc(OC)c(C2C=C(c3ccc(C)cc3)Nc3c(C(=O)Nc4ccccc4)cnn32)cc1OC (centres undefined) | inactive: 52% |
| Cc1ccc(C(C)C)c(OCC(=O)Nc2c(C(=O)c3ccc(F)cc3)oc3ccccc23)c1 | inactive: 74% |
| Cc1cc(O)c(C(c2ccccc2Cl)N2CCCCC2)c(=O)n1Cc1ccco1 (centres undefined) | inactive: 81% |
| CCn1cc(C(=O)NCc2ccccc2)c(=O)c2cc(S(=O)(=O)N3CCOCC3)ccc21 | inactive: 81% |
| Cc1c2cnn(CC(=O)N3CCCCC3)c(=O)c2c(C)n1Cc1ccc(Cl)cc1 | inactive: 84% |
| Cc1ccc(NC(=O)c2ccc3c(=O)n4nc(Nc5ccccc5C)sc4nc3c2)cc1C | inactive: 92% |
| CCc1ccc(C2N3CC4(C)CN2CC(c2ccccc2)(C3)C4=O)cc1 (centres undefined) | inactive: 118% |

Source: PubChem BioAssay AID463173 (ICCB-Longwood Screening Facility, Harvard Medical School, 2010)
